Screen size: about 39,000 compounds; about 220 (0.56%) showed activity. The list shows a part of the results.
Tested on: Escherichia coli K-12 BW25113
Assay: relative growth (OD600 normalised to plate interquartile mean) (fraction); higher = less growth inhibition, active = 0.2 or less
Details: 50 µM; LB; incubation time: overnight (16-24 h)
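Further: static incubation at 37 °C against the wild-type strain, values averaged over two biological replicates.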

Row | SMILES | relative growth
1 | C[C@H](CO)N1C[C@H](C)[C@@H](CN(C)C(=O)Nc2ccc(F)cc2)Oc2c(NC(=O)Nc3cccc4ccccc34)cccc2C1=O | inactive: 0.995
2 | C[C@@H]1CCCCO[C@H](CN(C)C(=O)NC2CCCCC2)[C@@H](C)CN([C@H](C)CO)C(=O)c2cc(NS(=O)(=O)c3ccccc3)ccc2O1 | inactive: 0.983
3 | C[C@@H]1CN([C@@H](C)CO)C(=O)c2cc(NS(C)(=O)=O)ccc2O[C@@H](C)CCCCO[C@H]1CN(C)CC1CC1 | inactive: 0.992
4 | NCc1ccc2occc2c1 | inactive: 0.998
5 | C[C@H]1CN([C@@H](C)CO)C(=O)Cc2cc(NC(=O)Nc3cccc4ccccc34)ccc2O[C@@H]1CN(C)Cc1ccc(C(=O)O)cc1 | inactive: 1.06
6 | Cc1ccc(S(=O)(=O)N(C)C[C@@H]2Oc3ccc(NS(=O)(=O)c4ccccc4)cc3CC(=O)N([C@@H](C)CO)C[C@H]2C)cc1 | inactive: 1.01
7 | CCN(CC)CCNc1ccc(CO)c2sc3ccccc3c(=O)c12 | inactive: 1.03
8 | C[C@@H]1CN([C@H](C)CO)C(=O)c2cc(NC(=O)c3ccncc3)ccc2O[C@H]1CN(C)Cc1ccc(C(=O)O)cc1 | inactive: 0.998
9 | COc1ccc(C#N)nc1 | inactive: 0.95
10 | COc1ccccc1CNC(=O)C[C@@H]1C[C@H]2c3cc(NC(=O)c4ccc5c(c4)OCO5)ccc3O[C@H]2[C@H](CO)O1 | inactive: 1.05
11 | COc1ccc(CN(C)C[C@@H]2Oc3ccc(NC(=O)Cn4cnnn4)cc3CC(=O)N([C@@H](C)CO)C[C@@H]2C)cc1 | inactive: 0.996
12 | COC(=O)NN=Cc1c[n+]([O-])c2ccccc2[n+]1[O-] | inactive: 0.574
13 | O=C(N/N=C/c1ccc(CO)o1)c1ccccn1 | inactive: 1
14 | C[C@@H]1CN([C@H](C)CO)C(=O)Cc2cc(NC(=O)Nc3ccc(C(F)(F)F)cc3)ccc2O[C@H]1CN(C)C(=O)Nc1cccc2ccccc12 | inactive: 1.04
15 | Cc1ccc(S(=O)(=O)N(C)C[C@@H]2Oc3ccc(NC(=O)CCCN(C)C)cc3CC(=O)N([C@@H](C)CO)C[C@H]2C)cc1 | inactive: 0.999
16 | C[C@@H]1CN([C@H](C)CO)C(=O)c2cc(NC(=O)NC3CCCCC3)ccc2O[C@@H](C)CCCCO[C@@H]1CN(C)C(=O)Cc1ccccc1 | inactive: 1.04
17 | O=C(C[C@@H]1CC[C@H]2[C@@H](COC[C@@H](O)CN2C(=O)Nc2ccc3c(c2)OCO3)O1)N1CCN(c2ccccc2)CC1 | inactive: 0.992
18 | C[C@@H]1CCCCO[C@@H](CN(C)Cc2ccccc2)[C@H](C)CN([C@H](C)CO)C(=O)c2cc(NC(=O)Nc3cccc4ccccc34)ccc2O1 | inactive: 0.995
19 | Cc1ccc(S(=O)(=O)Nc2ccc3c(c2)C(=O)N([C@H](C)CO)C[C@H](C)[C@@H](CN(C)Cc2ccc4c(c2)OCO4)OCCCC[C@H](C)O3)cc1 | inactive: 0.994
20 | Cc1cc2c(cc1C)N[C@@H](CC(N)=O)C(=O)N2 | inactive: 0.99
21 | C[C@@H]1CCCCO[C@@H](CN(C)CC2CCCCC2)[C@@H](C)CN([C@H](C)CO)C(=O)c2cc(NC(=O)NC3CCCCC3)ccc2O1 | inactive: 0.99

Row | SMILES | relative growth
22 | Nc1ncnc(NCCN2CCOCC2)c1[N+](=O)[O-] | inactive: 1.02
23 | Cc1noc(C)c1S(=O)(=O)Nc1ccc2c(c1)CC(=O)N([C@@H](C)CO)C[C@H](C)[C@@H](CN(C)S(=O)(=O)c1cn(C)cn1)O2 | inactive: 1.01
24 | COc1ccc(S(=O)(=O)N(C)C[C@@H]2Oc3ccc(NC(=O)Cc4ccccc4)cc3C(=O)N([C@H](C)CO)C[C@@H]2C)cc1 | inactive: 0.988
25 | C[C@@H]1CN([C@@H](C)CO)C(=O)Cc2cc(NC(=O)Nc3cccc4ccccc34)ccc2O[C@@H]1CN(C)Cc1ccc(C(=O)Nc2ccccc2N)cc1 | inactive: 1.02
26 | O=C(NCCCN1CCOCC1)[C@@H]1N[C@@H]2c3ccc(C4=CCCCC4)c(=O)n3C[C@@H]2[C@H]1CO | inactive: 0.983
27 | COc1ccc(NC(=O)Nc2ccc3c(c2)C(=O)N([C@H](C)CO)C[C@H](C)[C@@H](CN(C)C(=O)Nc2c(C)noc2C)OCCCC[C@H](C)O3)cc1 | inactive: 0.987
28 | CS(=O)(=O)CCC#N | inactive: 1
29 | C[C@@H]1CN([C@H](C)CO)C(=O)c2cc(NS(=O)(=O)c3ccccc3)ccc2O[C@@H]1CN(C)S(=O)(=O)c1ccc(F)cc1 | inactive: 1.04
30 | COc1ccc(CN2C[C@H](C)[C@H](OC)CN(C)C(=O)c3cc(NC(=O)c4nc5ccccc5s4)ccc3OC[C@@H]2C)cc1 | inactive: 1
31 | COc1ccc(CN(C)C[C@H]2OCCCC[C@@H](C)Oc3ccc(NS(=O)(=O)c4ccc(C)cc4)cc3C(=O)N([C@@H](C)CO)C[C@@H]2C)cc1 | inactive: 0.979
32 | CN(C)Cc1cn(CC[C@@H]2CC[C@@H](NS(=O)(=O)c3ccccc3)[C@H](CO)O2)nn1 | inactive: 1.05
33 | COc1ccc(S(=O)(=O)N[C@H]2CC[C@H](CCNC(=O)CN3CCOCC3)O[C@@H]2CO)cc1 | inactive: 0.98
34 | C[C@H]1CN([C@@H](C)CO)C(=O)c2cccc(NC(=O)c3ccc(-c4nccs4)cc3)c2O[C@H]1CN(C)S(=O)(=O)c1ccc(Cl)cc1 | inactive: 0.99
35 | C[C@H]1CN([C@@H](C)CO)C(=O)c2cc(-c3ccc(C(=O)N(C)C)cc3)cnc2O[C@@H]1CN(C)C(=O)C1CC1 | inactive: 1.02
36 | C[C@@H]1CN([C@@H](C)CO)C(=O)c2cc(NC(=O)Nc3cccc4ccccc34)ccc2O[C@H]1CN(C)C(=O)Nc1ccc(F)cc1 | inactive: 1.07
37 | CN(C)CCCNC(=O)C[C@@H]1CC[C@@H]2[C@H](COC[C@@H](O)CN2S(=O)(=O)c2ccc(Cl)cc2)O1 | inactive: 1.01
38 | COc1ccc(NC(=O)Nc2ccc3c(c2)C(=O)N([C@H](C)CO)C[C@H](C)[C@H](CN(C)C(=O)Nc2cccc4ccccc24)O3)cc1 | inactive: 1.01
39 | COc1ccc(NC(=O)N(C)C[C@H]2Oc3ccc(NC(=O)Nc4ccc(C(F)(F)F)cc4)cc3CC(=O)N([C@@H](C)CO)C[C@@H]2C)cc1 | inactive: 1.02
40 | Cc1noc(C)c1NC(=O)N(C)C[C@H]1Oc2ccc(NC(=O)Nc3ccc(C(F)(F)F)cc3)cc2CC(=O)N([C@@H](C)CO)C[C@H]1C | inactive: 0.985
41 | C[C@@H]1CCCCO[C@@H](CN(C)C(=O)NC2CCCCC2)[C@@H](C)CN([C@H](C)CO)C(=O)c2cc(NC(=O)Cc3ccccc3)ccc2O1 | inactive: 1.01
42 | C[C@H]1CN([C@@H](C)CO)C(=O)Cc2cc(NC(=O)CCN3CCOCC3)ccc2O[C@H]1CN(C)S(=O)(=O)c1ccccc1 | inactive: 1.01

Row | SMILES | relative growth
43 | CC(C)NC(=O)N1C[C@H]2[C@H](C(=O)N(C)Cc3ccccn3)CCS(=O)(=O)[C@H]2C1 | inactive: 1.01
44 | COC(=O)[C@H](Cc1ccc(-n2cc(-c3ccc(C(=O)NO)cc3)nn2)cc1)N1CC2=C[C@H]([C@@H](O)Cc3ccccc3)n3c(=O)n(C)c(=O)n3[C@@H]2[C@@H](C2CC2)O1 | inactive: 0.989
45 | OC[C@H]1O[C@H](Nc2ccccc2)C[C@@H]1O | inactive: 0.99
46 | C[C@H](CO)N1C[C@H](C)[C@H](CN(C)Cc2ccc(-c3ccccc3)cc2)Oc2ccc(NC(=O)Nc3cccc4ccccc34)cc2C1=O | inactive: 1.02
47 | COc1ccc2c3c([nH]c2c1)[C@@H](CO)N(C[C@]13CN(Cc2ccccc2Cl)C1)S(=O)(=O)c1cn(cn1)C | inactive: 1.01
48 | C[C@H](CO)N1C[C@H](C)[C@H](CN(C)S(=O)(=O)c2cn(C)cn2)Oc2ccc(NC(=O)NC3CCCCC3)cc2CC1=O | inactive: 1.03
49 | C[C@@H]1CN([C@H](C)CO)S(=O)(=O)c2ccc(-c3ccncc3)cc2O[C@@H]1CN(C)Cc1ccc(Oc2ccccc2)cc1 | inactive: 1.01
50 | C[C@@H]1CN([C@@H](C)CO)C(=O)Cc2cc(NC(=O)c3ccncc3)ccc2O[C@H]1CN(C)S(C)(=O)=O | inactive: 0.971
51 | COc1cccc(S(=O)(=O)N(C)C[C@H]2OCc3cnnn3CCCC(=O)N([C@@H](C)CO)C[C@H]2C)c1 | inactive: 1.02
52 | C[N+]1(C)CCC(OC(=O)C(O)(c2ccccc2)C2CCCC2)C1.[Br-] (stereo not drawn) | inactive: 0.933
53 | COc1ccc(COC[C@@]23Oc4ccccc4[C@@H](NC(=S)N2C)[C@@H]3CO[Si](C)(C)C(C)(C)C)cc1 | inactive: 1
54 | N=c1c(C(=O)NC[C@H]2CCCO2)cc2c(=O)n3ccccc3nc2n1CCCN1CCOCC1 | inactive: 0.989
55 | COc1ccc2c3c([nH]c2c1)[C@@H](CO)N(Cc1ccccc1)C[C@]13CCN(CC1)C(=O)Nc1cccc(c1)F | inactive: 0.992
56 | NCCN1CCO[C@@H](CC(=O)Nc2cc(Cl)cc(Cl)c2)C1=O | inactive: 0.914
57 | O=c1[nH]cnc2c1ncn2C1OC(CO)C(O)C1O (stereo not drawn) | inactive: 1.08
58 | CC1C(=O)CCC1=O | inactive: 1.04
59 | O=C(C[C@H]1C=C[C@@H](NC(=O)CN2CCOCC2)[C@H](CO)O1)NCCc1ccncc1 | inactive: 0.978
60 | C[C@H](C(=O)O)N1C(=O)CCC1=O | inactive: 0.956
61 | O=C(CN1CCOCC1)N[C@@H]1CC[C@H](CCNC(=O)C2CCC2)O[C@@H]1CO | inactive: 0.989
62 | C[C@@H]1CCCCO[C@@H](CN(C)Cc2ccc(C(F)(F)F)cc2)[C@H](C)CN([C@H](C)CO)C(=O)c2cc(NS(C)(=O)=O)ccc2O1 | inactive: 0.994
63 | COCCNC(=O)C[C@@H]1CC[C@H](NS(=O)(=O)c2ccc(C)cc2)[C@@H](CO)O1 | inactive: 0.983

Source: the supplement of paper PMC9446081
